Experimental data taken from the RNAGym collection of RNA variant scans (doi:10.1073/pnas.2313332121).
Variants at the floor of the assay are shown more often than the library holds them.

B1: TPR 5TU (parent)
chain: GGAUCUUCUCGAUCUAACAAAAAAGACAAAUCUGCCACAAAGCUUGAGAGCAUCUUCGGAUGCAGAGGCGGCAGCCUUCGGUGGCGCGAUAGCGCCAACGUUCUCAACUAUGACACGCAAAACGCGUGCUCCGUUGAAUGGAGUUUAUCAUG

Variants of: B1
Test: polymerase ribozyme fitness, log enrichment relative to wild type (log ratio); higher = more active; in vitro selection for triplet polymerase activity
How it was run: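 One round of in vitro selection, in triplicate, was applied to PCR-built, transcribed mutant libraries of each subunit of a heterodimeric triplet polymerase ribozyme. The steps were annealing with a biotinylated primer, partner subunit and triplets, incubation frozen at −7 °C, gel excision of extended constructs, streptavidin-bead capture and RT-PCR. Fitness is the logarithm, base 2, of genotype enrichment over wild-type enrichment from inverse-variance-weighted replicate averages of Illumina-sequenced inputs and outputs, keeping genotypes with ≥10 input reads and ≥1 read per output.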

Variant | polymerase ribozyme fitness (log ratio)
G11C A20U C69G G71C G80A A91U U144G | ≤ -4.2
G11C A22C A29U C32G C54A G92A U102C U134G U145C | ≤ -4.2
G11C A22C C54A G88A C99U | ≤ -4.2
G11C A22C G80A C108A U130A U146G A150G | ≤ -4.2
G11C A24U C87A U139A | ≤ -4.2
G11C A26U A52C G58A G84U | ≤ -4.2
G11C A39G C57G C96U G141U | ≤ -4.2
G11C A39U C87U | ≤ -4.2
G11C A41C U55A C85U G117C A150G | ≤ -4.2
G11C A41U U44A G58A U77A G80A G83U | ≤ -4.2
G11C A47C U55A G81A C87G A120U U144A | ≤ -4.2
G11C A52G G84A G133C G141A | ≤ -4.2
G11C A52U C96U A107G G136U | ≤ -4.2
G11C C14U A21U A22C G86C C87G A121C C131U | ≤ -4.2
G11C C27U U31G A41C A47U G68C G94C A120U | ≤ -4.2
G11C C36A U45A C87U A142U | ≤ -4.2
G11C C36U A49U C57U U102G C116G A119C G141C | ≤ -4.2
G11C C38U G58U C87U A98C G136U | ≤ -4.2
G11C C43G C132A G136A | ≤ -4.2
G11C C43G G58U C95A C96U C105A U111A C123G U135C | ≤ -4.2
G11C C51A A52G C79G C85G C116A | ≤ -4.2
G11C C51U C85U G140C | ≤ -4.2
G11C C54A U101G C103G U144G | ≤ -4.2
G11C C63U C79U G86C | ≤ -4.2

Variant | polymerase ribozyme fitness (log ratio)
G11C C75U | -1.85
G11C C87U C93A A121C | ≤ -4.2
G11C C114U U139A | ≤ -4.2
G11C C116G | -0.794
G11C G34C A60U U78G C85A C116U | ≤ -4.2
G11C G42A G88C U102C G126U | ≤ -4.2
G11C G48C G59A A60C C108A G136A | ≤ -4.2
G11C G58U G86A | ≤ -4.2
G11C U13G G92A C95A A98G C129U C149A A150C | ≤ -4.2
G11C U56A G86A | ≤ -4.2
G11C U56G C76A C79G U82A C93G U102G C103U C125A C129U U145G A150U | ≤ -4.2
G11C U82G G84A G143C | ≤ -4.2
G11U A12G A30U U53A C95U C132U | ≤ -4.2
G11U A12U A16U A41U G50A G84U A150G | ≤ -4.2
G11U A19C A21C C32U C36A A64U C93U A110G | ≤ -4.2
G11U A19U A28C A52C C85U A97U | ≤ -4.2
G11U A19U C32U U33C G74A C85U G141U C149A | ≤ -4.2
G11U A21C C54G C85U A89C C105A A106G G143A | ≤ -4.2
G11U A21C C87A | ≤ -4.2
G11U A22U G50U G84A A97C G141A | ≤ -4.2
G11U A24U C51U C76U C93G C99G A121U A138U G140C | ≤ -4.2
G11U A29C A89C C125U | -4.16
G11U A29G U127A A138C | ≤ -4.2
G11U A39U U44G C79U G84C G136U | ≤ -4.2

Variant | polymerase ribozyme fitness (log ratio)
G11U A41U C93U C99A U104G C118U G140U G152U | -4.02
G11U A60C U61A C69G G74A U146G A150C | ≤ -4.2
G11U C14G A21C A28U G71A C85U U104G G140C | ≤ -4.2
G11U C14G A21G A22G U55C A60G C85G A89C | ≤ -4.2
G11U C27U A29C C75U G83C G126U | ≤ -4.2
G11U C32U G84A C85A C105U C132U U139G U151G | -4.14
G11U C38U U44A C57U C93G C103G | ≤ -4.2
G11U C51U C87U U101G | ≤ -4.2
G11U C54A | -2.47
G11U C99G C125G G136U U146G | ≤ -4.2
G11U G48C C79A C93G A119G G141U | ≤ -4.2
G11U G86C | -3.55
G11U G86U C125U A150C | ≤ -4.2
G11U U13A C14G C76G C79G A98U | ≤ -4.2
G11U U56A C79G C87G C96U A142G | ≤ -4.2
A12C | 0.0783
A12C A17G A23C A26U A37U C103A | ≤ -4.2
A12C A17G A39G U44G G46C G59A G74C C87A C125A G128U | ≤ -4.2
A12C A19G G58C C79A C96U | ≤ -4.2
A12C A19U A47U U53A C85A C118G U127C G143U | ≤ -4.2
A12C A19U U31G A41C C93A G141A | -3.98
A12C A20C U53A C76A U151G | ≤ -4.2
A12C A20U A22G G94A A110G C116G G141U G152A | ≤ -4.2
A12C A20U U61A G62U A89C G92A A107C A110G | ≤ -4.2

Variant | polymerase ribozyme fitness (log ratio)
A12C A21C C57A C76U U101G C116G G140A G141U | ≤ -4.2
A12C A21G A23C A24C A30U C54U G59A A73G G83A | ≤ -4.2
A12C A23G U31C U55A | ≤ -4.2
A12C A23U A24C G58A C103G U144G | ≤ -4.2
A12C A23U C57U G67A U151G | ≤ -4.2
A12C A23U G25C G50U U55A C87U A120G A142U A150U | ≤ -4.2
A12C A29C C85A G133A | ≤ -4.2
A12C A29G C35U C51U C93U C116A U135G | ≤ -4.2
A12C A29U C85G G126U C132G | ≤ -4.2
A12C A30G G83U G86A | ≤ -4.2
A12C A30U A37U A49U C57U U90G A91U A107U | ≤ -4.2
A12C A37C G86U A142U | ≤ -4.2
A12C A39G C43G A49U C75A A91C C99U G143C | ≤ -4.2
A12C A39U G59A A91U C93U A150C | ≤ -4.2
A12C A40G G59U A60C C118G | ≤ -4.2
A12C A41U G83A C87U G140C | ≤ -4.2
A12C A47U U53A C57G U78A | ≤ -4.2
A12C A49U G67U C75U A91U G92A A98G A106C G143U | ≤ -4.2
A12C A52C C54U U145A | -3.53
A12C A52G A64U C116G A138U G141C | ≤ -4.2
A12C A52U G71A C87U | ≤ -4.2
A12C A64C U144G | ≤ -4.2
A12C A89G C95U A97C A120G U135G | ≤ -4.2
A12C C14A A29G G81A A91G C93U C103A | ≤ -4.2

Variant | polymerase ribozyme fitness (log ratio)
A12C C14A U90C A91G | ≤ -4.2
A12C C14G C57U A66C G71A G94U | ≤ -4.2
A12C C14U A22C U61G G65A G86A C93U U134G | ≤ -4.2
A12C C14U A39U U55A A60U U82G G86U G100U C103A A113G | ≤ -4.2
A12C C18G A40U C123U G136U | -3.09
A12C C18G U33G G81C A91C C95A A113C A115C | ≤ -4.2
A12C C18U C36U C93A U104A C131G | ≤ -4.2
A12C C27A C36U C72G C118A | ≤ -4.2
A12C C27G C79U G84U C85G G86C A107G U127C G143U C149A | ≤ -4.2
A12C C27U A49C C57U C85U A89U C105U | ≤ -4.2
A12C C32G U53A G62A G83A C99G G141U | ≤ -4.2
A12C C35U A39G G59A A64C G65U A115U C116U G133U | ≤ -4.2
A12C C38A C54U U55A C57G A73U C93G | ≤ -4.2
A12C C38A U55G U61G G84A A107U C125U | ≤ -4.2
A12C C38G G46A G59C C79A G140C | ≤ -4.2
A12C C43U C69G U77G A121U C149A | ≤ -4.2
A12C C54U G86C G94U C103G G117C G133C | ≤ -4.2
A12C C57A G83U G136C | -3.78
A12C C57A G84U U90A C93G C99U G136U U151G | ≤ -4.2
A12C C57U A64C U82G C96U A98U U101G | ≤ -4.2
A12C C72A C96G C103A U109A A113U A122U C125G U135C | ≤ -4.2
A12C C85G | -2.59
A12C C87U C114U U139G | -3.08
A12C C93G A98U | -3.05

Variant | polymerase ribozyme fitness (log ratio)
A12C C125U | -0.492
A12C C129G | -3.9
A12C G50C A66C C79G C93U C95U U139C A147U | ≤ -4.2
A12C G50C G65A C76G G83U | ≤ -4.2
A12C G58U U78G C96U C105U G128A U146A | ≤ -4.2
A12C G62A A122U | -0.923
A12C G68U G100A A142U A150G | ≤ -4.2
A12C G86A U90A | ≤ -4.2
A12C U13C A30U A60C C93G G140U | ≤ -4.2
A12C U15C A40U C99G | -0.411
A12C U15G U56A C75U G86U C129A G133U | ≤ -4.2
A12C U33A G48C U127G G140C | ≤ -4.2
A12C U55A A91G A110U | ≤ -4.2
A12G | 0.116
A12G A16U C85A A115G U135G U144A | ≤ -4.2
A12G A17G A19G U53A U55A G81U G84U G117U | -4.04
A12G A19G A22G G46A C85A C95A C114G A142C G152C | ≤ -4.2
A12G A19U A20G C57A C87G U139C | ≤ -4.2
A12G A19U A41U G50C C85U G133A U148C | ≤ -4.2
A12G A20C A39C A66G A73C G84U C132A G136U | ≤ -4.2
A12G A20G A60G | -0.113
A12G A20U A29U U53G A66C | -4.16
A12G A20U C35G C69G G141A C149A | ≤ -4.2
A12G A21C C32G G50U C125G | ≤ -4.2

Variant | polymerase ribozyme fitness (log ratio)
A12G A21C G34C C93U U135A | ≤ -4.2
A12G A21G U56A C87A U102G U134G | ≤ -4.2
A12G A21U C32G U78A G94C C103U U135A U148G | ≤ -4.2
A12G A22U U33G A41U U45G C85A A91U C96A A115G A138U | ≤ -4.2
A12G A23C A30G C95A C99U C131G C132A | ≤ -4.2
A12G A23G U90G U146A | ≤ -4.2
A12G A26C C35U C87A C93U A138C G141A | ≤ -4.2
A12G A29U U31A G67U C72A G92U A137G | ≤ -4.2
A12G A30G G50U C87U C125U U145C C149A | ≤ -4.2
A12G A30U C51G C57U C95G U101G G136A | ≤ -4.2
A12G A37U C79U A91U C99A A142C | ≤ -4.2
A12G A39U C43G U61C C96U A119G G128U | ≤ -4.2
A12G A49C G58A G70C U77C G88A C116G | ≤ -4.2
A12G A49C G74A C96U U102G G112U C125U | ≤ -4.2
A12G A73U C76G | ≤ -4.2
A12G C14G A22C A37C G88C G143C | ≤ -4.2
A12G C14U | -0.925
A12G C27G U33G C38U G42C G48A G50U G94C A119U | ≤ -4.2
A12G C35U U56C C57G G58U A60G | -0.194
A12G C36G G46A G58A C95G U148G | ≤ -4.2
A12G C43A C87U A91U G126A G143C | ≤ -4.2
A12G C54A A60C G74A C96U G124A | ≤ -4.2
A12G C54G G88C C105U | ≤ -4.2
